Laboratory results as given in the supplement of paper PMC3334620.
The full ranking holds about 33,000 sequences; the median of “E-score (-0.5 to 0.5)” is about -0.012, and the highest 2% start at about 0.27. The list shows a part of the results.

Biological target: T1, Vhr1 (UniProt P40522)
T1 sequence: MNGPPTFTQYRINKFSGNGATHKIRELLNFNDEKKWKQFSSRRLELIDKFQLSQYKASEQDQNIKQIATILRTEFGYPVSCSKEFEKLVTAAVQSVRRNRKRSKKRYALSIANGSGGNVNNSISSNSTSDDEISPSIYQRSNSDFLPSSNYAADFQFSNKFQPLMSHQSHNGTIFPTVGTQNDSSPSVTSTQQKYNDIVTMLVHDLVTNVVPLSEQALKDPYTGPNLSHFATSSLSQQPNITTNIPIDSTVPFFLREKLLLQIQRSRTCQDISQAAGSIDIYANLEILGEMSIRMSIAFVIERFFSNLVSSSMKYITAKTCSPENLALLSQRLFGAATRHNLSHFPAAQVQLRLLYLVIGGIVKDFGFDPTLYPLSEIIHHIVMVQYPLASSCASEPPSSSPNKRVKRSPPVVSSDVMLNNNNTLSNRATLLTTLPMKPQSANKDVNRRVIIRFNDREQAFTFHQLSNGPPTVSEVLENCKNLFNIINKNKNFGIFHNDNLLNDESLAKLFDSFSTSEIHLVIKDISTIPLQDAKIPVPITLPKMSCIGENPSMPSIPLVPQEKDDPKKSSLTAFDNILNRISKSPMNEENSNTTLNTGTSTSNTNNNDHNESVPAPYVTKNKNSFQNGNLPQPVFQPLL
Test: PBM E-score (8-mer binding enrichment) (E-score (-0.5 to 0.5)); higher = stronger / more preferred TF binding; most listed sequences are background and not binding sites
Details: protein concentration: 200 nM; construct: GST-full length
Outline: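 The E-score, a modified Wilcoxon-Mann-Whitney statistic, was computed by the Universal PBM Analysis Suite for every ungapped eight-base word pooled with its reverse complement. Scans behind it were normalised with masliner after bound GST-tagged yeast transcription factors were detected with fluorescent anti-GST. The proteins, at about 100-200 nM, had been applied to universal all-10-mer Agilent arrays made double-stranded by primer extension.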

Row | Sequence | PBM E-score
1 | AAAGGATT | -0.0921
2 | CAACCACA | 0.155
3 | CTGACAAA | -0.0657
4 | AAAAGGCA | -0.0348
5 | AAAGTGCT | -0.076
6 | AGCACCGA | 0.123
7 | ATACTGGA | 0.121
8 | AACGTACT | 0.196
9 | TCCAATAA | -0.109
10 | AAGGCAAT | -0.12
11 | ATAGCCTG | 0.0591
12 | AAGCCCAG | -0.0873
13 | GGTGTTGA | -0.0191
14 | CGCCCCGC | 0.0373
15 | ACATAGAC | 0.0646
16 | ACACATCC | 0.249
17 | GACTGCAA | 0.132
18 | ACCTGGGC | -0.255
19 | GGTTGAAC | 0.0417
20 | CATTAACG | 0.0431
21 | AAGAATCA | 0.222
22 | GCGTGTCC | 0.209

Row | Sequence | PBM E-score
23 | ACACATGT | 0.244
24 | CATTCAGA | 0.0364
25 | ATCCGCTA | -0.0247
26 | ATTTCTAC | -0.212
27 | ACTACTTG | 0.22
28 | GCACGTGA | -0.0842
29 | AACTTAAC | -0.0643
30 | GAAGCACA | -0.00604
31 | CAATCCCG | 0.264
32 | ATACCGTG | 0.166
33 | CCCCGGGG | -0.126
34 | GCACTCAA | -0.155
35 | ACCCCGGA | -0.114
36 | TGTACACA | 0.0228
37 | ATTAAGAC | -0.155
38 | CCTGATTC | 0.367
39 | ATATCACG | 0.00112
40 | CGCATAAA | -0.159
41 | CGGGGTGA | 0.275
42 | AGCGAGGC | -0.196
43 | AAGCGTAC | -0.125
44 | ATAGGATG | 0.2

Row | Sequence | PBM E-score
45 | AATCTATA | -0.00156
46 | GCGAGTTA | 0.0636
47 | CAGCTTCG | -0.0461
48 | GACTTCGA | -0.122
49 | CGCAACCG | -0.0379
50 | GATTTAGA | -0.118
51 | CACGTACA | 0.108
52 | AGTCCGCC | 0.243
53 | ATAGTAAG | 0.0984
54 | AAAACCTC | -0.0788
55 | CGCCCTGC | 0.123
56 | GAGGGAGA | -0.0874
57 | ATTAAGCA | -0.118
58 | CAGTGCTC | -0.00995
59 | TCGGTGAA | -0.0445
60 | AAGCTTAC | -0.142
61 | TAACATGA | 0.102
62 | AGCCTACG | 0.0434
63 | CATTGGAC | 0.0432
64 | CGTAAATC | -0.183
65 | CGAGGTTA | 0.0411
66 | CCTTTTTA | -0.205

Row | Sequence | PBM E-score
67 | TGAGGCCA | -0.00975
68 | ACTGTGCA | 0.111
69 | AAGAGAAG | -0.204
70 | AGCGTTGC | -0.116
71 | AGTCAGAG | 0.386
72 | TAATCGCA | 0.138
73 | CAACGGCG | -0.125
74 | AGTGTTGC | -0.027
75 | GGAGTCCA | 0.163
76 | TAATTAAA | -0.00776
77 | ATCATTGG | 0.204
78 | CATCCCTC | 0.0935
79 | TAAATGCA | 0.064
80 | CAAGTGAA | -0.108
81 | TGAACGAA | -0.192
82 | ATACACCC | 0.11
83 | ACTCACCC | 0.391
84 | ACTCCGCC | 0.183
85 | TAGAACGA | 0.0366
86 | AATATGTA | 0.00191
